Measured values: PMC8060278 (2021)

T1: recombinant ligand-binding domain (LBD) of GPIbα (residues His1-Arg290) (human, UniProt P07359 17-306, biotin on the BioTag (…))
T1 chain: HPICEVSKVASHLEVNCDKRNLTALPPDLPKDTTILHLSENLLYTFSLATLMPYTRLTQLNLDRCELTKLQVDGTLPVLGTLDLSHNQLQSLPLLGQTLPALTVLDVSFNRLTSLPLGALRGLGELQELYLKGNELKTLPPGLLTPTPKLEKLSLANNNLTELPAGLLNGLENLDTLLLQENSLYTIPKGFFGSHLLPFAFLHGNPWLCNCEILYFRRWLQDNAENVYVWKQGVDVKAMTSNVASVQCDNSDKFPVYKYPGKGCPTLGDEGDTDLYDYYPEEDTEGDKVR


What was measured:
[1] = biological target: T1, recombinant ligand-binding domain (LBD) …; assay: BLI; steady-state apparent
[2] = biological target: T1, recombinant ligand-binding domain (LBD) …; assay: BLI; lower-affinity state (KD), heterogeneous-ligand fit
[3] = biological target: T1, recombinant ligand-binding domain (LBD) …; assay: BLI; higher-affinity state (KD'), heterogeneous-ligand fit
[4] = biological target: T1, recombinant ligand-binding domain (LBD) …; assay: BLI; KD,app steady state
[5] = biological target: T1, recombinant ligand-binding domain (LBD) …; assay: BLI; KD (first phase of kinetic fit)
[6] = biological target: T1, recombinant ligand-binding domain (LBD) …; assay: BLI; KD' (second site/phase of heterogeneous kinetic fit)

Kd [1] [nM] | Kd [2] [nM] | Kd [3] [nM] | Kd [4] [nM] | Kd [5] [nM] | Kd [6] [nM] | Binder
175 | 408 | 11.2 | – | – | – | A1-CAIM (recombinant VWF fragment […]) (domain or fragment) not shown
– | – | – | 171 | 408 | 4.2 | tAIM-A1 (VWF […]) (domain or fragment) not shown
806 | 431 | 4 | – | – | – | NAIM-A1 (VWF […]) (domain or fragment) not shown
